Reference: the supplement of paper PMC9446081
Among all 39,000 compounds or so, about 220 (0.56%) showed activity. This is one part of the list.

Each molecule was assayed on Escherichia coli K-12 BW25113 (assay: relative growth (OD600 normalised to plate interquartile mean) (fraction); higher = less growth inhibition, active = 0.2 or less). Details: 50 µM; LB; incubation time: overnight (16-24 h).
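Note: static incubation at 37 °C against the wild-type strain, values averaged over two biological replicates.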

SMILES	relative growth
O=C(NO)c1cccc(C(=O)N/N=C/[C@H](O)[C@@H](O)[C@H](O)[C@H](O)CO[C@H]2O[C@H](CO)[C@H](O)[C@H](O)[C@H]2O)c1	inactive: 0.943
C[C@H](CO)N1C[C@H](C)[C@H](CN(C)S(=O)(=O)c2ccc(Cl)cc2)Oc2ccc(NC(=O)Nc3cccc4ccccc34)cc2C1=O	inactive: 0.986
C[C@@H]1CN([C@@H](C)CO)S(=O)(=O)c2ccc(C#Cc3ccncc3)cc2O[C@H]1CN(C)C(=O)Nc1ccc2c(c1)OCO2	inactive: 0.997
C[C@H]1CN([C@@H](C)CO)C(=O)Cc2cc(NS(=O)(=O)c3ccc(F)cc3)ccc2O[C@@H]1CN(C)S(=O)(=O)c1cccs1	inactive: 0.994
C[C@@H]1CN([C@@H](C)CO)C(=O)c2cccc(NS(C)(=O)=O)c2O[C@H]1CN(C)C(=O)Nc1ccc(C(F)(F)F)cc1	inactive: 0.952
COC1=C(O)C(=O)c2c(cc3oc(C(C)=O)c(O)c3c2O)C1=O	inactive: 1.07
O=C(C1=C[C@@H](c2coc3ccccc3c2=O)C[C@@H](OCCCCO)O1)N1CCN(Cc2ccc3c(c2)OCO3)CC1	inactive: 0.99
CN(C)C(=O)C[C@H]1CC[C@H](NC(=O)C2CC2)[C@H](CO)O1	inactive: 1.01
CC(C)NC(=O)Nc1ccc2c(c1)CC(=O)N([C@@H](C)CO)C[C@H](C)[C@H](CN(C)Cc1ccc(C(=O)O)cc1)O2	inactive: 0.99
Cc1noc(C)c1NC(=O)Nc1ccc2c(c1)CC(=O)N([C@@H](C)CO)C[C@H](C)[C@H](CN(C)Cc1ccc(-c3ccccc3)cc1)O2	inactive: 0.973
CCCCS(=N)(=O)CC[C@@H](N)C(=O)O (stereo partly specified)	inactive: 1.01
CCNC(=O)C[C@@H]1CC[C@H]2[C@@H](COc3ccc(NS(=O)(=O)c4ccccc4C)cc3C(=O)N2C)O1	inactive: 0.976
C=C1C2CCC3(C)C(c4ccoc4)OC(=O)CC13OC1CC(=O)C(C)(C)C(C(O)C(=O)OC)C12C (stereo unspecified)	inactive: 1.14
O=C(C[C@@H]1CC[C@H]2NC[C@H](O)COC[C@@H]2O1)NCCN1CCCCC1	inactive: 0.993
CCC(=O)N1CCN=C1SC	inactive: 1.02
C[C@@H]1CN([C@@H](C)CO)C(=O)c2cc(NC(=O)Nc3ccc4c(c3)OCO4)ccc2O[C@@H](C)CCCCO[C@H]1CN(C)Cc1ccc(C(F)(F)F)cc1	inactive: 0.972
C[C@@H]1CN([C@H](C)CO)C(=O)c2cccc(NC(=O)c3ccncc3)c2O[C@@H]1CN(C)S(=O)(=O)c1cccs1	inactive: 0.973
O=C(O)CCc1n[nH]c(=S)[nH]c1=O	inactive: 0.947
C[C@H]1CN([C@@H](C)CO)C(=O)c2cc(NC(=O)CCC(F)(F)F)ccc2O[C@H]1CN(C)C(=O)Nc1cccc2ccccc12	inactive: 0.997
C[C@@H]1CN([C@@H](C)CO)C(=O)c2cccc(NS(=O)(=O)c3cn(C)cn3)c2O[C@H]1CN(C)Cc1ccncc1	inactive: 1
C[C@@H]1CCCCO[C@@H](CN(C)C(=O)Nc2cccc3ccccc23)[C@H](C)CN([C@@H](C)CO)C(=O)c2cc(NS(=O)(=O)c3ccccc3)ccc2O1	inactive: 1.06

SMILES	relative growth
CN1C(=O)CO[C@H]2CN(C(=O)NCc3cccnc3)C[C@@H]21	inactive: 1.03
Nc1ccc(S(=O)(=O)Nc2ccc(Cl)nn2)cc1	inactive: 1.03
NCCCCCCNC(=O)[C@@H]1C[C@@H]2C(=O)N[C@@H](CCCCN)C(=O)N2[C@@H]1c1ccc(O)cc1	inactive: 0.828
COCCNC(=O)C[C@@H]1C[C@H]2c3cc(NC(=O)Nc4ccc(C(F)(F)F)cc4)ccc3O[C@H]2[C@@H](CO)O1	inactive: 1.01
C[C@@H]1CN([C@H](C)CO)C(=O)c2cc(NC(=O)Cc3ccccc3)ccc2O[C@@H](C)CCCCO[C@@H]1CN(C)Cc1ccc2c(c1)OCO2	inactive: 1.01
C[C@@H]1CN([C@@H](C)CO)C(=O)c2cc(/C=C/c3ccccc3)cnc2O[C@H]1CN(C)C(=O)CN1CCOCC1	inactive: 1.04
O=C(C[C@@H]1CC[C@@H]2[C@H](COC[C@@H](O)CN2C(=O)c2ccncc2)O1)NC1CCC1	inactive: 0.999
Cc1ccc(S(=O)(=O)Nc2cccc3c2O[C@@H](CN(C)S(=O)(=O)c2c(C)noc2C)[C@@H](C)CN([C@H](C)CO)C3=O)cc1	inactive: 1.01
COc1ccc(NC(=O)Nc2ccc3c(c2)C(=O)N([C@H](C)CO)C[C@H](C)[C@@H](CN(C)C(=O)NC2CCCCC2)OCCCC[C@H](C)O3)cc1	inactive: 1.01
COc1ccc(S(=O)(=O)N(C)C[C@H]2Oc3c(NC(=O)c4ccncc4)cccc3C(=O)N([C@@H](C)CO)C[C@@H]2C)cc1	inactive: 1
COc1ccc(CN(C)C[C@H]2OCCCC[C@H](C)Oc3ccc(NC(=O)CCC(F)(F)F)cc3C(=O)N([C@@H](C)CO)C[C@@H]2C)cc1	inactive: 1.04
NC1(C#Cc2cncc(C(=O)N3CCOCC3)c2)CCCCC1	inactive: 0.914
NC(=O)NCC#Cc1ccc2c(c1)[C@]1(C(=O)N2)[C@H](C(=O)N2CCN(c3ncccn3)CC2)[C@H]2C(=O)O[C@H](c3ccccc3)[C@H](c3ccccc3)N2[C@@H]1c1ccccc1OCCO	inactive: 1.07
Nc1ncnc2c1nc(Br)n2[C@@H]1O[C@@H]2COP(=O)(O)O[C@H]2[C@H]1O	inactive: 0.844
C[C@H](CO)N1C[C@H](C)[C@@H](CN(C)Cc2ccc(Oc3ccccc3)cc2)Oc2ccc(NC(=O)C3CCCCC3)cc2C1=O	inactive: 1.01
Cc1noc(C)c1S(=O)(=O)N(C)C[C@H]1Oc2ccc(NC(=O)C3CCCCC3)cc2CC(=O)N([C@@H](C)CO)C[C@H]1C	inactive: 0.994
C[C@@H]1CN([C@H](C)CO)S(=O)(=O)c2ccc(-c3cccnc3)cc2O[C@@H]1CN(C)CC1CCOCC1	inactive: 1.03
Cc1cc[nH]c(=O)c1	inactive: 0.972
CN(C)CCN1CCN(C)C2(CCN(C(=O)c3ccn[nH]3)CC2)C1=O	inactive: 0.991
O=C(C[C@H]1C[C@@H]2c3cc(NS(=O)(=O)c4ccccc4)ccc3O[C@@H]2[C@@H](CO)O1)NC1CCCCC1	inactive: 0.991
